Experimental data taken from PMC12136788.
The list shows a part of the results.

B1: chr1:25687284:25687285:+_ENSG00000183726_ENST00000374358|hu_mus|FALSE|FALSE (ssRNA)
RNA: GGGAGUUCUACAGUCCGACGAUCUCAUGAUUCUAGCAUUAUACAAUUUCAAGCUGAGAUUAUACUCAGAAAUAAGUUUAGAAAACAGUAUUACAAAAGACUGGGUGGGUGAGCAGGGUGCAAAAAGAAGCCCAUGCACGGCGGCAACAGAGGAUUGAGCAUCA
B2: chr3:119450855:119450856:-_ENSMUSG00000028134_ENSMUST00000029780|mus_hu|mus_mus_mus_hu_False|78_78 (ssRNA)
RNA: GGGAGUUCUACAGUCCGACGAUCUGUGGUGCCACUAAGAGGAGUAUUUGCUGUCUGGACCGCUGUCACAGCUUGAAGAACUGCCUGAGCACGUUGGUUUAAUGUAUUAUCUGUCUUUAGUUCUUUGUGAUUCGAGUACUGGAUCAACAGAGGAUUGAGCAUCA
B3: 51937465_51937585_3347_3pUTR_ENSMUSG00000020349_ENSMUST00000020608|mouse|control|control (ssRNA)
RNA: GGGAGUUCUACAGUCCGACGAUCACCACUCACUCUUUGACACAAGCCCCAUUCUGAGAAUCUGUAUGUACAUGACAUGUGUCAACUAUAGGAAAGACUCCAUUAGAGCCCUCUUUAUCGUCAGGAUCCCCAGUGCAGCUGCUUCAACAGAGGAUUGAGCAUCA
B4: chr5:28717518:28717519:+_ENSMUSG00000048271_ENSMUST00000114884|mus_hu|FALSE|FALSE (ssRNA)
RNA: GGGAGUUCUACAGUCCGACGAUCUGCUGAGGGCGUGGCAGAGCAGCGGCUGCUGCUCAUUUCUAUCACGUGUGACGGCGCUAUGGGUAAUUCACGCAAAUUGCUGUUCCUUGGCGCAGUGGGCUGCAUUUGCUGCAUGGGCCGCAACAGAGGAUUGAGCAUCA
B5: chr2:216225781:216225782:-_ENSG00000115414_ENST00000323926|hu_hu|motif|central (ssRNA)
RNA: GGGAGUUCUACAGUCCGACGAUCAAAUACUGGGAAAAAUUGAUAAAUAACAGGUAAGAGAAAGAUAUUUCUAGGCAAUUACGGGGAUCAUUUGGAAAAAGUGAGUACUGUGGAUAUUUAAAAUAUCACAGUAACAAGAUCAUGCAACAGAGGAUUGAGCAUCA
B6: chr17:7417611:7417612:+_ENSG00000181222_ENST00000322644|hu_hu|FALSE|FALSE (ssRNA)
RNA: GGGAGUUCUACAGUCCGACGAUCCAAGAGUCUGCAUCAGAAACGGGAUCCAGAAGUUCACCGGGAGCUCUGCCACAAGGCAUUUAUGUACAACGGAGCUGGGCUGGGGGUGACGCCCCGUGAGGGAGGCAAGAACUGCACAGCCAACAGAGGAUUGAGCAUCA

Biological target: T1, UNK ZnF1-3 (human, UniProt Q9C0B0 31-174)
T1 sequence: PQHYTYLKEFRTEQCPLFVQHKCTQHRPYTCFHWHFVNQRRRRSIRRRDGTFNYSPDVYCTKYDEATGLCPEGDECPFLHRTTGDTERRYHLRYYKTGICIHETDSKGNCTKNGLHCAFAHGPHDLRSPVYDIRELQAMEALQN
Test: nsRBNS (natural sequence RNA bind-n-seq); RBNS binding buffer (assumed for nsRBNS): 25 mM Tris pH 7.5, 150 mM KCl, 3 mM MgCl2, 0.01% Triton X-100, 500 ug/ml BSA, 20 U/ml SUPERase-In, 4 C; UNK is unkempt and MSI1 is Musashi-1; names of the RNAs are library labels; protein concentration not given here; high values mean tight binding

Binder	binding signal
B1	1.97 enrichment R
B2	0.807 enrichment R
B3	0.901 enrichment R
B4	0.527 enrichment R
B5	1.91 enrichment R
B6	2.61 enrichment R
